Source: PubChem BioAssay AID2676 (National Center for Advancing Translational Sciences (NCATS), 2010)
The whole screen tested about 370,000 compounds, of which about 1,100 (0.3%) were called active. The shares of active, inactive and inconclusive entries below differ from those in the screen. Calls come from the whole dose curve; as a rule, active = well fitted activation curve with a large enough effect; inconclusive = small, poorly fitted or top-dose-only effect; inactive = flat fitted curve, though single readings scatter. Where the call is inconclusive, the potency comes from a doubtful curve fit. Where a structure was tested more than once in an assay, its records may differ in their call.

Molecular target: Relaxin receptor 1 (Homo sapiens) (UniProt Q9HBX9)
UniProt Q9HBX9, sequence (Q9HBX9 whole entry, looked up): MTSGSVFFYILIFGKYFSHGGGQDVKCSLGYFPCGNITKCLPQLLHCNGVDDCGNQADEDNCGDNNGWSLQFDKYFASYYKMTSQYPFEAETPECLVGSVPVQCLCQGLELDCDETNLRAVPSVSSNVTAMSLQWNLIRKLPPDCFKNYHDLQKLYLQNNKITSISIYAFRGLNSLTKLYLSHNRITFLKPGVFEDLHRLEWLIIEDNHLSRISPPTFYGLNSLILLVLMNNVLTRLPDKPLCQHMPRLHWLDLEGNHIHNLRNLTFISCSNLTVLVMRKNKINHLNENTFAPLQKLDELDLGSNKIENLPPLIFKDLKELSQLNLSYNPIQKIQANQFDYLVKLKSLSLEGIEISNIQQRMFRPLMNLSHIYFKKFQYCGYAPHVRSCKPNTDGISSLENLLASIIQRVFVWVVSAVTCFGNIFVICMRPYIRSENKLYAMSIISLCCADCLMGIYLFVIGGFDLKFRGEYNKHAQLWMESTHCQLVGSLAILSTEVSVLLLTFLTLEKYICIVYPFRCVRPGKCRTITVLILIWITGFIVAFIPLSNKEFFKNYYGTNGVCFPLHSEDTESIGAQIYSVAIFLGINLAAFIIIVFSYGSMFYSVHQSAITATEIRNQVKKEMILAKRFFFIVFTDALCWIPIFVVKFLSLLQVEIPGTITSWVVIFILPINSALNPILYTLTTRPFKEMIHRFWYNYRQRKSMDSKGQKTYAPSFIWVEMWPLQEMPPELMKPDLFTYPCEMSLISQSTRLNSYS
Test: qHTS Assay for Agonists of the Relaxin Receptor RXFP1; note: nearly all actives have a fitted effect of over 60% in size
Settings: HEK293T-RXFP1 cAMP TR-FRET, 30 min; series mostly up to 57.5 µM; activation: at the top concentration
How it was run: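 Agonist response is measured as cAMP accumulation in an RXFP1-transfected HEK293T line under PDE4 inhibition. Values are scaled between buffer-only and 29 nM porcine relaxin, and EC50s come from standard Hill equation fits.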
% is set by controls: 0 for no effect and ±100 for the full control effect; potency is the fitted concentration of half-maximal effect; tags give direction and shape of the fitted curve.

Potency, active:
COc1ccc(NC(=O)CSc2ccc3nnc(-c4cccnc4)n3n2)cc1OC 17.8 µM
Cc1ccc(-c2cc(C(=O)NCc3cnn(C)c3)c3cc(Br)ccc3n2)cc1 22.4 µM
COc1ccc(C(C)=O)cc1Cn1cnc2c(cnn2C)c1=O 12.6 µM
Cc1ccc(C(=O)C2=C(O)C(=O)N(CCCn3ccnc3)C2c2ccc(OC(C)C)cc2)o1 (stereo not drawn) 15.8 µM
CCOC(=O)c1sc(=NC(=O)c2ccc(Br)cc2)n(C)c1C 17.8 µM

Potency, inconclusive:
CN(C)c1ccc(NC(=O)Cn2c(SCc3ccc(F)cc3)nc3cccnc32)cc1 28.2 µM [activator, single point]
COc1ccc(-c2cc(C(=O)Nc3ccn(Cc4ccc(C)cc4)n3)no2)cc1OC 25.1 µM [activator, partial curve]
CC(=O)CSc1ncnc2c1oc1ccccc12 15.8 µM [activator, partial curve]
COc1ccc(Cn2nnnc2C(c2ccc3ncccc3c2)N2CCN(C3CCCCC3)CC2)cc1 (stereo not drawn) 17.8 µM [activator, partial curve]
N/C(=N\OC(=O)COc1ccc2ccccc2c1Br)c1ccncc1 25.1 µM [activator, partial curve]
Cc1cc(C)c2[nH]c(C(=O)Nc3ccc(F)cc3Br)cc2c1 39.8 µM [activator, single point]
Cc1nonc1C(=O)N/N=C/c1ccc(O)cc1 39.8 µM [activator, single point]
O=C(NCc1ccccc1Cl)c1cnc2sc(N3CCOCC3)nn2c1=O 35.5 µM [activator, single point]
CCCOc1cccc(C2/C(=C(\O)c3ccc4c(c3)OCCO4)C(=O)C(=O)N2CCCn2ccnc2)c1 (stereo not drawn) 10 µM [activator, partial curve]
O=C(CNC(=O)C1CCCCC1)OCC(=O)c1ccc(Cl)s1 28.2 µM [activator, partial curve]
COCCCn1c(SCC(=O)NCc2ccccc2)nc2c(sc3ccccc32)c1=O 35.5 µM [activator, single point]
Cc1nc(SC2CCOC2=O)c2c(C)c(C)sc2n1 (stereo not drawn) 28.2 µM [activator, partial curve]
Cc1cc(Br)ccc1NC(=O)c1cn(C2CCCC2)c(=O)c2c1c1ccccc1n2C 39.8 µM [activator, single point]
COc1ccc(C2=CC3=C(Br)C(=O)C(C)(O)C(=O)C3=CO2)cc1 (stereo not drawn) 15.8 µM [activator, partial curve]
N=c1c(C(=O)NC2CCCC2)cc2c(=O)n3ccccc3nc2n1CC1CCCO1 (stereo not drawn) 22.4 µM [activator, partial curve]
Cc1c(Cl)cccc1Nc1nn2c(=O)c3ccc(C(=O)NCCc4ccccc4)cc3nc2s1 31.6 µM [activator, single point]
COCCCNC(=O)/C(C#N)=C/c1c(N2CCN(C)CC2)nc2c(C)cccn2c1=O 25.1 µM [activator, partial curve]
N#Cc1sc2nc(-c3cccs3)cc(-c3ccc(Cl)cc3)c2c1N 25.1 µM [activator, partial curve]
Cn1nc(C(=O)OCC(=O)NC2CCS(=O)(=O)C2)c2ccccc2c1=O (stereo not drawn) 39.8 µM [activator, single point]
O=C(Cn1c(=O)n(-c2ccc(F)cc2)c(=O)c2sccc21)NC1CCCCC1 39.8 µM [activator, single point]
Cc1ccc(NC(=O)Cn2c(=O)c3ccccc3n3nncc23)cc1 31.6 µM [activator, single point]
COc1ccc(C)cc1NC(=O)CN(C)S(=O)(=O)c1ccc2c(c1)n(C)c(=O)c(=O)n2C 28.2 µM [activator, single point]
Cc1c(Cl)ccc2c(C(N)=O)cc(-c3ccccn3)nc12 39.8 µM [activator, single point]
Cn1c(=O)c2c(nc(Br)n2Cc2nnc(N)s2)n(C)c1=O 15.8 µM [activator, partial curve]
COc1cc(NS(=O)(=O)c2cc3c(cc2C)N(C)CCO3)cc(OC)c1OC 28.2 µM [activator, single point]
CNC(=O)c1cc(C(=O)c2ccc(C(F)(F)F)cc2F)c[nH]1 39.8 µM [activator, single point]
Cc1ccc2nc(COc3ccccc3NC(=O)c3ccccc3F)cc(=O)n2c1 28.2 µM [activator, single point]
COc1ccc(C2C=C(c3cccs3)Nc3nc(CCCO)nn32)cc1 (stereo not drawn) 28.2 µM [activator, single point]
CCCn1c(N)c(C(=O)CSc2ncnc3sccc23)c(=O)n(C)c1=O 39.8 µM [activator, single point]
COc1ccc(Oc2nc(SC)nc3ccsc23)cc1 6.31 µM [activator, single point]
CSc1ncc(C(=O)Nc2cccc(C)c2C)c(-c2ccccc2)n1 39.8 µM [activator, single point]
Cc1ccc(-c2nc(-c3cc4cccc(OCc5ccc(F)cc5)c4oc3=O)no2)cc1 28.2 µM [activator, partial curve]
CCOC(=O)N1CCN(S(=O)(=O)c2c(C)nc3sccn3c2=O)CC1 28.2 µM [activator, partial curve]
Cc1ccc(CN2CCSc3ccc(C(=O)NCCCN4CCN(C)CC4)cc32)cc1 17.8 µM [activator, partial curve]
COc1cc(Cl)c(C)cc1NC(=O)c1ccc2c(c1)OCO2 35.5 µM [activator, partial curve]
COc1ccc(-c2cc3ccc(O)c(CN4CCCC(C)C4)c3oc2=O)cc1 (stereo not drawn) 31.6 µM [activator, partial curve]
CCOc1ccc(CCNC(=O)Cn2c(=O)c3cccn3c3ccc(F)cc32)cc1OCC 17.8 µM [activator, partial curve]
COc1ccc(OC)c(NC(=O)CSc2cn(CC(=O)N3CCCCCC3)c3ccccc23)c1 28.2 µM [activator, single point]
CCS(=O)(=O)c1nc(S(=O)(=O)c2ccc(Cl)cc2)c(N2CCCC2)s1 12.6 µM [activator, partial curve]
O=C(Nc1cccc(NC(=O)c2ccc(Cl)cc2)n1)c1ccc(Cl)cc1 31.6 µM [activator, partial curve]
CCn1c(=O)c2sccc2n2c(CCC(=O)Nc3ccc(F)cc3)nnc12 17.8 µM [activator, partial curve]
CCCn1c(=O)c(C(=O)NCc2ccco2)c(O)c2ccccc21 25.1 µM [activator, partial curve]
N#Cc1c2c(c(-c3ccccc3Cl)[nH]c1=S)CCCC2 22.4 µM [activator, partial curve]
COC(=O)CSc1ncnc2c1sc1nc3c(cc12)COC(C)(C)C3 35.5 µM [activator, single point]
COc1cccc(-c2cn3c(n2)sc2cc(C(=O)NC4CCCCC4)ccc23)c1 31.6 µM [activator, single point]
CCc1nnc(NC(=O)CSc2ccc(-c3cccs3)nn2)s1 25.1 µM [activator, partial curve]
COC(=O)c1ccc(/C=C/c2c(-c3ccc(OC)cc3)oc3ccc(N4CCOCC4)cc23)cc1 31.6 µM [activator, partial curve]

activation, inactive:
CCCCOc1ccc(C(=O)N/C(=C/C=C/c2ccccc2)C(=O)NCCCO)cc1 1.64%
COc1ccc(NC(=O)C(=O)NNC(=O)c2cccs2)cc1 1.13%
COc1ccc(-c2nc(-c3ccccn3)no2)cc1 27%
CC(=O)c1ccc(NC(=O)c2ccc3c(c2)N(Cc2cccc(Cl)c2)C(=O)c2ccccc2S3(=O)=O)cc1 0.0819%
O=C(O)CN1C(=O)/C(=C\c2cccc(OCc3ccccc3)c2)SC1=S -0.802%
CC(C)Cc1cc(C(=O)Nc2sc3c(c2C#N)CCCC3)no1 -0.192%
O=C(CCN1C(=O)/C(=C/c2ccccc2Cl)SC1=S)NNC(=O)c1cccnc1 0.136%
O=C(CN1CCOc2ccccc21)NC1CCN(Cc2ccccc2)CC1 1.01%
Cc1cc(C)c(O)c(-c2cc(C(=O)Nc3ccc(S(=O)(=O)N4CCOCC4)cc3)[nH]n2)c1 0.0325%
CCOc1ccc2[nH]c(=O)c(CN(Cc3ccc(C)cc3)C(=O)N3CCCC3)cc2c1 2.49%
COc1ccccc1OCc1ccc(C(=O)N2CCN3CCCC3C2)cc1 (stereo not drawn) 0.435%
CCOC(=O)c1ccccc1N/C=C1\CCCC1=O -0.0887%
Cc1ccc(SCC(=O)NCc2ccccc2)cc1 1.72%
Cc1cc(NCc2ccccc2Cl)n2cnnc2n1 4.17%
COc1nnc(-c2ccc(N3CCCCC3)c(NC(=O)c3ccc(C)cc3)c2)c2ccccc12 9.33%
O=C(NCC1CCCO1)c1ccc(Cn2c(=S)[nH]c3ccccc3c2=O)cc1 (stereo not drawn) 3.89%
